Laboratory results reported in patent US10233201B2, “Class of HDAC inhibitors expands the renal progenitor cells population and improves the rate of recovery from acute kidney injury” (University of Pittsburgh—Of the Commonwealth System of …, priority 2012, dated 2019).

Tested on: PTC-DTR mice, DT-induced AKI

## COC(=O)CCCSc1ccccc1 [UPHD-00025, methyl 4-(phenylsulfanyl) butanoate]
Data not shown
  overt toxicity in treated PTC-DTR mice: no overt signs of toxicity
mouse, in vivo
  increase in the rate of renal recovery: approximately 30%
  reduction in peak BUN: 30%
